About 31,000 (8.9%) of roughly 350,000 compounds were called active. This list was built around the results that the source calls inconclusive (neither active nor inactive); the mix of calls is not that of the screen. The call rests on the fitted dose curve; in most records, active means well fitted inhibition curve with a large enough effect; inconclusive means small, poorly fitted or top-dose-only effect; inactive means no such curve, though single readings can be large or run the other way. Where the call is inconclusive, the potency comes from a doubtful curve fit.
What follows are compounds tested against Histone-lysine N-methyltransferase EHMT2 (Homo sapiens) (UniProt Q96KQ7) (assay: qHTS Assay for Inhibitors of Histone Lysine Methyltransferase G9a). Conditions: G9a H3K9 monomethylation, AlphaScreen, 2 h; activity, negative = inhibition: at 59 µM (top of the series) unless noted.
Chain of UniProt Q96KQ7 (Q96KQ7 whole entry, looked up): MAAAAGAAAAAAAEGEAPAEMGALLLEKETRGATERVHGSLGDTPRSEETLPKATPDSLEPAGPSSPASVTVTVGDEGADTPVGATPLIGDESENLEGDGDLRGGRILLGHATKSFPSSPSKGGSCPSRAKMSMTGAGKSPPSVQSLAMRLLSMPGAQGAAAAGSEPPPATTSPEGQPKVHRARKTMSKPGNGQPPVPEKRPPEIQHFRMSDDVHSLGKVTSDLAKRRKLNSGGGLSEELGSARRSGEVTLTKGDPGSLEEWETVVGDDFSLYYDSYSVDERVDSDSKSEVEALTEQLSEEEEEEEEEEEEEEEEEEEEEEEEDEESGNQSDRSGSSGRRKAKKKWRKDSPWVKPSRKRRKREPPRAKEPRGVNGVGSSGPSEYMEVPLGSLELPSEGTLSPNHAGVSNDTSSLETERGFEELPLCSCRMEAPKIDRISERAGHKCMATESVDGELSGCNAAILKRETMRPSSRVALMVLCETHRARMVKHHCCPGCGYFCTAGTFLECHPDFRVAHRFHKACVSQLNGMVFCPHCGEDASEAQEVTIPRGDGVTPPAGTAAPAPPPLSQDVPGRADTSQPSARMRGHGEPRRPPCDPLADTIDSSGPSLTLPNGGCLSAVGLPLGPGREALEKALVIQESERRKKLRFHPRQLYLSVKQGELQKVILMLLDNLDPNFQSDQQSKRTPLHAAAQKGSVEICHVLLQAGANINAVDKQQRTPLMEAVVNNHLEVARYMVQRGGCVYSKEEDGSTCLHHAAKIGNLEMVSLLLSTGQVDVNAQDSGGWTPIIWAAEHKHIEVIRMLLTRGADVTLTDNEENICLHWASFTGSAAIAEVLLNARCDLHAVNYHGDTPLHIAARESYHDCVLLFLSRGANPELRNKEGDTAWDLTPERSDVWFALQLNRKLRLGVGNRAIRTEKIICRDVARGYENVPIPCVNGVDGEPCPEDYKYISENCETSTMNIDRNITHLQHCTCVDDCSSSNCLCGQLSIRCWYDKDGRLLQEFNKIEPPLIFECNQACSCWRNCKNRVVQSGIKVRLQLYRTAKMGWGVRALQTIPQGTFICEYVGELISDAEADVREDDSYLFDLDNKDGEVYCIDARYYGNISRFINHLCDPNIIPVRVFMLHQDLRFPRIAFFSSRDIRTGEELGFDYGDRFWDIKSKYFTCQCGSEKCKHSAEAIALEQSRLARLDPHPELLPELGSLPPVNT
Procedure, shortened: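 Methyltransferase reactions run at room temperature for 2 h (20 nM enzyme, 500 nM biotin-H3K9 peptide, 20 uM SAM) after a 15 min compound preincubation; product detected by AlphaScreen beads and anti-H3K9me1 antibody.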
Further: nearly all actives have a fitted effect of over 75% in size.
On the % scale 0 is the no-effect control and ±100 the full control effect; potency means the concentration at half of the fitted maximal effect; tags describe the fitted curve by direction and shape.

**Q.** Cc1cccc(C)c1NC(=O)COC(=O)c1cccc2c1C(=O)c1ccccc1C2=O was tested. Which Potency did it give?
**A.** inconclusive: 22.4 µM [inhibitor, single point]

**Q.** How did the activity, negative = inhibition turn out when c1ccc(CSCc2cn3ccsc3n2)cc1 was run?
**A.** inconclusive: -91.2% [inhibitor]

**Q.** Which Potency does the source give for O=C1c2ccccc2NC(c2ccco2)N1O (stereo not drawn) here?
**A.** inconclusive: 2.82 µM [inhibitor, partial curve, poor fit]

**Q.** C[C@H](NC(=O)CCn1nnc2ccccc2c1=O)C(=O)O was tested. Which “activity, negative = inhibition” value did it give?
**A.** inactive: 28.1% [at 102 µM]

**Q.** How did the Potency turn out when CCOC(=O)c1cncc(C#CCO)c1 was run?
**A.** inconclusive: 56.2 µM [inhibitor, partial curve, poor fit]

**Q.** For Cn1c(CCNC(=O)c2ccc(Cl)c(Cl)c2)nnc1SCc1ccc(Cl)c(Cl)c1, which activity, negative = inhibition is on record?
**A.** inconclusive: -60.9% [inhibitor] [at 12.7 µM]

**Q.** Which Potency does the source give for O=C(Nc1ccc(OC(F)(F)F)cc1)C(Cc1ccccc1)NS(=O)(=O)c1cccc2nsnc12 (stereo not drawn) here?
**A.** inconclusive: 0.794 µM [inhibitor, partial curve, poor fit]

**Q.** How did the Potency turn out when Cc1ccc(C(=O)Nn2cnnc2)cc1 was run?
**A.** inconclusive: 89.1 µM [inhibitor, single point]

**Q.** How did the Potency turn out when COc1ccc(C(=O)NNC(=S)NC(=O)c2ccccc2[N+](=O)[O-])cc1 was run?
**A.** inconclusive: 22.4 µM [inhibitor, single point]

**Q.** With COc1ccc(NC2=C(C(C)=O)C(c3ccc(OC)cc3)C(C(C)=O)C(C)(O)C2)cc1 (stereo not drawn) as the compound, how does the Potency read?
**A.** inconclusive: 89.1 µM [inhibitor, partial curve, poor fit]

**Q.** How did the Potency turn out when COc1ccc2cc(C3CC(c4ccco4)=NN3C(=O)CCC(=O)O)c(Cl)nc2c1 (stereo not drawn) was run?
**A.** inconclusive: 31.6 µM [inhibitor, single point]

**Q.** For CCOC(=O)c1c(Nc2ccc(O)cc2)nnc(-c2ccccc2)c1-c1ccccc1, which “activity, negative = inhibition” value is on record?
**A.** inactive: -22.5%

**Q.** How did the Potency turn out when COc1ccc(-c2csc(-n3ncc(C(=O)O)c3C(F)(F)F)n2)cc1 was run?
**A.** inconclusive: 89.1 µM [inhibitor, single point]

**Q.** CCCc1cc(C(=O)Nc2sc3c(c2C#N)CCC3)no1 was tested. Which Potency did it give?
**A.** active: 39.8 µM

**Q.** How did the Potency turn out when O=C(c1cnc2n(c1=O)CCS2)N1CCN(C(c2ccccc2)c2ccc(Cl)cc2)CC1 (stereo not drawn) was run?
**A.** inconclusive: 79.4 µM [inhibitor, single point]

**Q.** With COc1ccc(C(=O)C(C)OC(=O)c2nc3nccc(C)n3n2)cc1 (stereo not drawn) as the compound, how does the activity, negative = inhibition read?
**A.** inactive: 19.7% [at 2.33 µM]

**Q.** With Cc1ccc(NC(=S)NCCc2c[nH]c3ccccc23)c(C)c1 as the compound, how does the Potency read?
**A.** inconclusive: 50.1 µM [inhibitor, partial curve]

**Q.** Which Potency does the source give for Cc1cc(-c2n[nH]c(=S)n2/N=C/c2cc([N+](=O)[O-])ccc2Cl)n[nH]1 here?
**A.** active: 1.78 µM

**Q.** Cc1ccc(-c2nn(-c3ccccc3)cc2/C=C/C(=O)Nc2nccs2)cc1 was tested. Which “activity, negative = inhibition” value did it give?
**A.** inactive: 38.4%

**Q.** With O=S(=O)(c1ccc(F)cc1)N1CN(Cc2ccco2)c2nc3ccccc3nc21 as the compound, how does the Potency read?
**A.** active: 11.2 µM

**Q.** Cc1c(O)nc(SCC(=O)Nc2cccc(C(F)(F)F)c2)n(-c2ccccc2)c1=O was tested. Which Potency did it give?
**A.** active: 44.7 µM

**Q.** For CCN(CC)CCN1C(=O)C2C(C(=O)Nc3cccc(SC)c3)C3C=CC2(O3)C1C(=O)NC1CCCC(C)C1C (stereo not drawn), which Potency is on record?
**A.** inconclusive: 89.1 µM [inhibitor, single point]

**Q.** With Cc1ccc(-c2nc3ccccc3o2)cc1NC(=O)Cc1cccs1 as the compound, how does the Potency read?
**A.** inconclusive: 3.98 µM [inhibitor, single point]

**Q.** Which activity, negative = inhibition does the source give for CCN1C(=O)[C@H]2[C@@H](c3ccc(-c4ccc(OC)cc4)cc3)N[C@@](Cc3ccccc3)(C(=O)OC)[C@H]2C1=O here?
**A.** inactive: -6.39% [at 2.33 µM]

**Q.** For COc1cccc2cc(C(=O)Nc3ccccc3Cl)/c(=N/NS(=O)(=O)c3ccccc3)oc12, which “activity, negative = inhibition” value is on record?
**A.** inactive: 1.17%

**Q.** For COc1ccc(N2CCN(C(=O)C3CCN(S(=O)(=O)c4cccc5nonc45)CC3)CC2)cc1, which Potency is on record?
**A.** inconclusive: 11.2 µM [inhibitor, partial curve]

**Q.** How did the Potency turn out when Cc1c(C(=O)NCC2CCCO2)oc2ccc(S(=O)(=O)N3CCCCC3)cc12 (stereo not drawn) was run?
**A.** inconclusive: 89.1 µM [inhibitor, single point]

**Q.** With Cc1cc(C)cc(NC(=O)c2ccc3oc(=O)c(S(=O)(=O)c4ccc(F)cc4)cc3c2)c1 as the compound, how does the “activity, negative = inhibition” value read?
**A.** inactive: -26.3%

**Q.** Which Potency does the source give for CCSc1nc2nc(C)cc(C)n2n1 here?
**A.** inconclusive: 70.8 µM [inhibitor, partial curve, poor fit]

**Q.** How did the “activity, negative = inhibition” value turn out when CCOc1ccccc1OCCCCn1c(-c2ccc(Cl)cc2)nc2ccccc2c1=O was run?
**A.** inactive: 9.65%

**Q.** Cc1ccc(S(=O)(=O)CC(=O)Nc2cccc(C)n2)cc1 was tested. Which Potency did it give?
**A.** inconclusive: 7.94 µM [inhibitor, full curve]

**Q.** How did the Potency turn out when CCCCN(C(=O)c1ccc2c(c1)OCO2)c1ccccc1 was run?
**A.** active: 50.1 µM

**Q.** For CCCN1C(=O)/C(=C\C=C2/Sc3ccccc3N2CC)SC1=S, which activity, negative = inhibition is on record?
**A.** inconclusive: -56.9% [inhibitor] [at 12.7 µM]

**Q.** How did the Potency turn out when O=C1c2ccccc2C(Nc2ccc(F)cc2F)N1CCN1CCOCC1 (stereo not drawn) was run?
**A.** inconclusive: 50.1 µM [inhibitor, partial curve, poor fit]

**Q.** COc1ccc(C(c2c(NC(=O)c3ccccc3)sc(C)c2C)N2CCN(CCO)CC2)cc1 (stereo not drawn) was tested. Which Potency did it give?
**A.** inconclusive: 35.5 µM [inhibitor, single point]

**Q.** For COCc1c(Br)c(C)nc(OCC(=O)O)c1C#N, which Potency is on record?
**A.** inconclusive: 1.58 µM [inhibitor, partial curve, poor fit]

**Q.** With COc1cc2cc(C(c3nnnn3C3CCCC3)N3CCCCCC3)c(=O)[nH]c2cc1OC (stereo not drawn) as the compound, how does the Potency read?
**A.** active: 12.6 µM

**Q.** How did the “activity, negative = inhibition” value turn out when O=C(NC(NCc1ccccn1)(C(F)(F)F)C(F)(F)F)c1ccco1 was run?
**A.** inactive: 16.5% [at 102 µM]

**Q.** For CC(O)Cc1cn(CC(=O)N2CCNCC2)nn1 (stereo not drawn), which Potency is on record?
**A.** inconclusive: 7.94 µM [inhibitor, single point]

**Q.** With Cc1c(OCC(=O)NCc2ccccn2)ccc2c3c(c(=O)oc12)CCCC3 as the compound, how does the Potency read?
**A.** inconclusive: 56.2 µM [inhibitor, partial curve, poor fit]

**Q.** For COc1ccccc1C(=O)Nc1ccnn1C1CCN(CCC(C)c2ccc(C)o2)CC1 (stereo not drawn), which Potency is on record?
**A.** active: 7.08 µM

**Q.** How did the Potency turn out when CN1CCc2c(sc(NC(=O)c3ccc([N+](=O)[O-])o3)c2C(N)=O)C1 was run?
**A.** active: 35.5 µM

**Q.** How did the Potency turn out when Cn1c(SCC(=O)Nc2ccc(Cl)cc2F)nnc1-c1ccco1 was run?
**A.** active: 44.7 µM

**Q.** For CCC(Oc1ccccc1)C(=O)Nc1ccccc1N1CCCC1 (stereo not drawn), which Potency is on record?
**A.** inconclusive: 89.1 µM [inhibitor, single point]

**Q.** COC(=O)CCCCC1SCC2NC(=O)NC21O (stereo not drawn) was tested. Which Potency did it give?
**A.** active: 8.91 µM

**Q.** O=C(c1c[nH]c2ccc(S(=O)(=O)N3CCOCC3)cc2c1=O)N1CCCC1 was tested. Which Potency did it give?
**A.** inconclusive: 89.1 µM [inhibitor, partial curve, poor fit]

**Q.** Which Potency does the source give for CC(=O)Nc1ccc(S(=O)(=O)N2CCN(c3cc(C)nc4ncnn34)CC2)cc1 here?
**A.** inconclusive: 79.4 µM [inhibitor, partial curve, poor fit]

**Q.** With CCCc1cc(-c2n[nH]c(=S)n2CC)c2ccccc2n1 as the compound, how does the Potency read?
**A.** inconclusive: 10 µM [inhibitor, partial curve, poor fit]

**Q.** For Cc1cc(OC(C)C(=O)N/N=C/CC(C)c2ccccc2)ccc1Cl (stereo not drawn), which Potency is on record?
**A.** inconclusive: 44.7 µM [inhibitor, partial curve, poor fit]

**Q.** For O=C(Nc1cccc(C(=O)O)c1)/C(=C\C=C\c1ccccc1)NC(=O)c1ccccc1, which Potency is on record?
**A.** inconclusive: 28.2 µM [inhibitor, single point]

**Q.** How did the Potency turn out when CC(=O)NC(CC(=O)OCc1ccc([N+](=O)[O-])cc1)c1ccccc1 (stereo not drawn) was run?
**A.** inconclusive: 56.2 µM [inhibitor, partial curve]

**Q.** Which Potency does the source give for CCOC(=O)c1c(C)[nH]c(C(=O)CSc2nnnn2-c2ccc(C)cc2)c1C here?
**A.** inconclusive: 20 µM [inhibitor, single point]

**Q.** C#CCOCCOCCOCCNc1nc(N2CCOCC2)nc(N2CCN(C(=O)Cn3cc(CC(C)O)nn3)CC2)n1 (stereo not drawn) was tested. Which Potency did it give?
**A.** active: 79.4 µM

**Q.** Which Potency does the source give for N#C/C(=C\c1ccc(O)c(O)c1)C(=O)N1CCc2ccccc21 here?
**A.** active: 6.31 µM

**Q.** For Cc1cccc2sc(NNC(=O)c3cc(-c4cccs4)nc4ccccc34)nc12, which Potency is on record?
**A.** active: 31.6 µM

**Q.** How did the Potency turn out when O=C(O)c1cn(Cc2ccccc2Cl)c2ccc(S(=O)(=O)N3CCOCC3)cc2c1=O was run?
**A.** inconclusive: 89.1 µM [inhibitor, single point]

**Q.** CC1(C)CC(=O)C(C=NCCN2CCN(C(=O)NC34CC5CC(CC(C5)C3)C4)CC2)=C(O)C1 was tested. Which Potency did it give?
**A.** active: 50.1 µM

**Q.** For CC(C)(C)/C(O)=C/c1nc2ccccc2[nH]c1=O, which Potency is on record?
**A.** inconclusive: 50.1 µM [inhibitor, partial curve, poor fit]

**Q.** CCN(CC(=O)NCc1ccc(F)cc1)C(=O)CN1CCN(c2cc(Cl)ccc2C)CC1 was tested. Which Potency did it give?
**A.** inconclusive: 89.1 µM [inhibitor, single point]

**Q.** With Cc1ccc(NC(=O)C(=O)NCCc2c[nH]c3ccccc23)c(C)c1 as the compound, how does the “activity, negative = inhibition” value read?
**A.** inactive: -25.6% [at 102 µM]

**Q.** O=c1nc2ccccc2c2n1CC(CN1CCN(c3ccccc3F)CC1)N2 (stereo not drawn) was tested. Which activity, negative = inhibition did it give?
**A.** inactive: 24.9% [at 0.501 µM]

**Q.** CC1CCc2onc(C(=O)N3CCN(c4ccc(F)cc4)CC3)c2C1 (stereo not drawn) was tested. Which “activity, negative = inhibition” value did it give?
**A.** inactive: 1.98%

**Q.** For CCCOc1ccc(-c2cn3ccccc3n2)cc1, which Potency is on record?
**A.** inconclusive: 31.6 µM [inhibitor, full curve]

**Q.** How did the Potency turn out when CC1(C)CCC(=O)N2CC[C@H]3C[C@H](OC(=O)Nc4ccc5c(c4)OCO5)C[C@@H]1[C@H]32 was run?
**A.** inconclusive: 89.1 µM [inhibitor, single point]

**Q.** For CCN1CCN(C(=O)c2cnn(-c3ccc(F)cc3F)c2C2CCN(C(=O)OC(C)(C)C)CC2)CC1, which “activity, negative = inhibition” value is on record?
**A.** inactive: -8.43%

**Q.** With OCC[n+]1ccc(/C=C/c2c[nH]c3ccccc23)cc1 as the compound, how does the Potency read?
**A.** inconclusive: 7.94 µM [inhibitor, partial curve]

**Q.** Which Potency does the source give for CCOc1ccc(NC(=O)c2c(NCc3cccnc3)sc3c2CCC(C)C3)cc1 (stereo not drawn) here?
**A.** active: 2.24 µM

**Q.** Cc1cc(C)cc(OCC(=O)Nc2ccc3c(c2)OCO3)c1 was tested. Which Potency did it give?
**A.** inconclusive: 0.447 µM [inhibitor, partial curve, poor fit]

From PubChem BioAssay AID504332 (National Center for Advancing Translational Sciences (NCATS), 2011)
